The test has as its system L1210 leukemia ip in BDF1 mice, survival T/C. The test can be described thus: NCI In Vivo Anticancer Drug Screen. Data for tumor model L1210 Leukemia (intraperitoneal) in B6D2F1 (BDF1) mice. Particulars: endpoint: mean survival time, higher = longer survival.

Structures are written as SMILES. Inconclusive results and toxic doses are left out. For part of its entries the source gives two or more results. This is not the full list of results. An entry can have further records. Results that share an entry are repeated measurements in other runs, samples, wells, individuals or studies.

On to `NC(=O)c1n[nH]nc1N1CC[N+](CCCl)=N1`, for which the T/C (dose: 100.0 mg/kg/injection, schedule: Q01DX009 (ip), vehicle: saline with Tween-80) is 105 % of control and 150 % of control.

Turning to `Nc1nc(N)c2c(Cl)c(CNc3ccc(Cl)c(Cl)c3)ccc2n1`, the T/C (dose: 200.0 mg/kg/injection, schedule: Q04DX003 (ip), vehicle: water) was 92 % of control and 152 % of control. With `CCC1CN1CC1CO1` (centres undefined), where the note is “dose: 22.0 mg/kg/injection, schedule: Q01DX Z (ip), vehicle: saline”, the T/C was 118 % of control and 159 % of control.

In the case of `O=C(Nc1ccc(NC(=O)Nc2ccc(C3=NCCN3)cc2)cc1)Nc1ccc(C2=NCCN2)cc1`, the T/C (dose: 165.0 mg/kg/injection, schedule: Q01DX Z (ip), vehicle: carboxymethylcellulose (CMC)) was 106 % of control and 196 % of control; the T/C (dose: 250.0 mg/kg/injection, schedule: Q01DX Z (ip), vehicle: carboxymethylcellulose (CMC)) is 96 % of control and 161 % of control. Consider `CCCNC(=O)c1ccc(NC(=O)Nc2ccc(C3=NCCN3)cc2)cc1NC(=O)Nc1ccc(C2=NCCN2)cc1`, for which the T/C (dose: 200.0 mg/kg/injection, schedule: Q01DX Z (ip), vehicle: carboxymethylcellulose (CMC)) is 111 % of control and 177 % of control. Consider `OC(CN(CCCl)CCCl)C(O)C(O)C(O)CN(CCCl)CCCl` (centres undefined), for which the T/C is, setting by setting: (dose: 0.5 mg/kg/injection, schedule: Q01DX Z (ip), vehicle: saline) 118 % of control and 158 % of control; (dose: 4.5 mg/kg/injection, schedule: Q01DX Z (ip), vehicle: saline) 119 % of control and 153 % of control. Turning to `O=NN(CCCl)C(=O)NC1CCCCC1`, the T/C (dose: 1.0 mg/kg/injection, schedule: Q01DX Z (ip), vehicle: carboxymethylcellulose (CMC)) is 114 % of control and 155 % of control; the T/C (dose: 31.0 mg/kg/injection, schedule: Q01DX Z (ip), vehicle: carboxymethylcellulose (CMC)) was 124 % of control and 158 % of control. As for `CC1(C)CN(Cc2ccc(Cl)cc2)C1=O`, the T/C (dose: 200.0 mg/kg/injection, schedule: Q04DX002 (ip), vehicle: other) was 110 % of control and 161 % of control. On to `CCOC(=O)C(NC(=O)C(Cc1ccc(N(CCCl)CCCl)cc1)NC(C)=O)C(C)C` (centres undefined), for which the T/C (dose: 30.0 mg/kg/injection, schedule: Q01DX009 (ip), vehicle: alcohol) was 110 % of control and 155 % of control; the T/C (dose: 50.0 mg/kg/injection, schedule: Q01DX009 (ip), vehicle: alcohol) is 108 % of control and 156 % of control; the T/C (dose: 75.0 mg/kg/injection, schedule: Q01DX009 (ip), vehicle: alcohol) was 122 % of control and 182 % of control.

These data come from PubChem BioAssay AID248 (DTP/NCI, 2004).
